Assay results published in PubChem BioAssay AID1347165 (National Center for Advancing Translational Sciences (NCATS), 2019).
About 5,700 (2.6%) of roughly 220,000 compounds were called active. The inconclusive results got no clear call from the source; some entries with a clear call stand among them for comparison. Calls come from the whole dose curve; as a rule, active = well fitted inhibition curve with a large enough effect; inconclusive = small, poorly fitted or top-dose-only effect; inactive = no such curve, though single readings can be large or run the other way. Where the call is inconclusive, the potency comes from a doubtful curve fit.

molecular target: Lysine-specific demethylase 5B (Homo sapiens) (UniProt Q9UGL1); assay: Primary screen for KDM5B Histone Demethylases FDH-coupled qHTS; conditions: FDH-coupled NADH fluorescence (FDH is formaldehyde dehydrogenase); activity change, negative = inhibition: at 57.7 µM (top of the series) unless noted; note: nearly all actives have a fitted effect of over 70% in size; for activity change, negative = inhibition: 0% is about no effect
Sequence of UniProt Q9UGL1 (Q9UGL1 whole entry, looked up, the tested form may be a part): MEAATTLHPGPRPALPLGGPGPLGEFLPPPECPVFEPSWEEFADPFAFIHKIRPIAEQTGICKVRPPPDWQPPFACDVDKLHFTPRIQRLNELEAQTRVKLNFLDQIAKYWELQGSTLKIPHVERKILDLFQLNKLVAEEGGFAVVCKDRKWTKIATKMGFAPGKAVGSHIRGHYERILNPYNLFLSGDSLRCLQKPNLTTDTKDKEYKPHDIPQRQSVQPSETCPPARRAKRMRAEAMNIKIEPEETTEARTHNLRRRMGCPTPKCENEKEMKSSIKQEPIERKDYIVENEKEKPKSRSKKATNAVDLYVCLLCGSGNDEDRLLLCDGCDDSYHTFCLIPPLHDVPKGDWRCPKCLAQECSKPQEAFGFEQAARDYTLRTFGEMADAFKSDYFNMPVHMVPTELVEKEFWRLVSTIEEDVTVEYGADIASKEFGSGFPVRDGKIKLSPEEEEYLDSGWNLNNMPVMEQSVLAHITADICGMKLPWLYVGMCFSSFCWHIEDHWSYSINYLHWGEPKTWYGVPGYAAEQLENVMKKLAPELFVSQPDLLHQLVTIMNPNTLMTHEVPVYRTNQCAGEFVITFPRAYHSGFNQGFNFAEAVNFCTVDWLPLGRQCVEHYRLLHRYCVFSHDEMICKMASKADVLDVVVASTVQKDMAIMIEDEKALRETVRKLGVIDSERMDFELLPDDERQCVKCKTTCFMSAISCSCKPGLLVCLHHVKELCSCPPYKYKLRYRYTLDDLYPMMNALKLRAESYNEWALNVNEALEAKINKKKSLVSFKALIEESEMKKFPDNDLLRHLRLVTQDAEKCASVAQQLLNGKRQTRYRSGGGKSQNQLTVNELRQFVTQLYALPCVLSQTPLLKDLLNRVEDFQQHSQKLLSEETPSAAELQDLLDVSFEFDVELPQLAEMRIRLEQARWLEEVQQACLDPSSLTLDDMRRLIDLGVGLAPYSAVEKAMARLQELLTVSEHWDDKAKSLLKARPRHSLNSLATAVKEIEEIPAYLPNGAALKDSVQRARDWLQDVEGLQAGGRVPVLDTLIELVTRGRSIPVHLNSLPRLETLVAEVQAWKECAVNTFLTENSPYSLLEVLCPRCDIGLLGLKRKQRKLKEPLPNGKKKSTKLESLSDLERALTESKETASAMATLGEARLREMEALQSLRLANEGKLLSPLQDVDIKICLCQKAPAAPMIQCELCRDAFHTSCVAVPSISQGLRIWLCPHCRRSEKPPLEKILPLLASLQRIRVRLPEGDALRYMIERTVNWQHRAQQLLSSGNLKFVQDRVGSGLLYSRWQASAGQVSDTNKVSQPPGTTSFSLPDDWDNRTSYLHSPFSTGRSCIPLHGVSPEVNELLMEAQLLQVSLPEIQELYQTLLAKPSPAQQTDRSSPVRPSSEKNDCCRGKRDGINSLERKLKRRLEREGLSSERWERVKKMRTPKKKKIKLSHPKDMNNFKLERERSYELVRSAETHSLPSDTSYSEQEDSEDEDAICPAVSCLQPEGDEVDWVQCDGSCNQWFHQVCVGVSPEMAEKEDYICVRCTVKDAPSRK
Summary of the method: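 Inhibition is measured as reduced NADH fluorescence generation from FDH coupling to formaldehyde release. Truncated KDM5BΔAP at 200 nM final acts on H3K4me3 peptide (12.5 µM in substrate mix) in pH 7.5 HEPES buffer with Tween-20, 30 min, room temperature.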
Potency is the fitted concentration of half-maximal effect; tags give direction and shape of the fitted curve.

Question: With `O=C(CSc1ncc(-c2ccccc2)[nH]1)Nc1cccc(Br)c1` as the compound, how does the Potency read?
Answer: inconclusive: 15.8 µM [inhibitor, partial curve, poor fit]

Question: For `CCOC(=O)c1nc2ccccc2nc1NCC(C)c1ccccc1` (stereo not given), which Potency is on record?
Answer: inactive

Question: For `Cc1ccc(-c2nnn3c2nc(NC2CCC(C)CC2)c2ccccc23)cc1` (stereo not given), which Potency is on record?
Answer: inconclusive: 14.1 µM [inhibitor, partial curve, poor fit]

Question: Which Potency does the source give for `CCOc1ccc(N2CC(C)Cn3c2nc2c3c(=O)n(Cc3c(F)cccc3Cl)c(=O)n2C)cc1` (stereo not given) here?
Answer: inconclusive: 39.8 µM [inhibitor, single point]

Question: Which Potency does the source give for `O=C(c1cc(=O)[nH]c2cc(F)ccc12)N1CCCC(CCc2ccc(F)cc2)C1` (stereo not given) here?
Answer: inconclusive: 22.4 µM [inhibitor, single point]

Question: `O=C(Cn1nc2c(cc1=O)CCCCC2)Nc1nc(-c2ccccn2)cs1` was tested. Which Potency did it give?
Answer: inconclusive: 10 µM [inhibitor, partial curve, poor fit]

Question: `O=C(COc1ccc2ccc(=O)oc2c1)NC1CCN(Cc2ccccc2)CC1` was tested. Which Potency did it give?
Answer: inconclusive: 22.4 µM [inhibitor, single point]

Question: For `CCCc1noc(-c2cccn3c(CNC(=O)CCC4CCCC4)nnc23)n1`, which Potency is on record?
Answer: inconclusive: 3.98 µM [inhibitor, full curve, poor fit]

Question: With `COC[C@@H]1CN(c2ncccn2)C[C@H]1C(=O)NCCn1cccn1` as the compound, how does the Potency read?
Answer: active: 20 µM

Question: `COc1cc(/C=C(/C#N)C(=O)Nc2cccc3ncccc23)cc(OC)c1OC` was tested. Which Potency did it give?
Answer: inactive

Question: `O=C(Nc1ccc2c(N3CCCC3)ncnc2c1)C1CCCO1` (stereo not given) was tested. Which Potency did it give?
Answer: inconclusive: 22.4 µM [inhibitor, single point]

Question: `Cc1ccc2nc(-c3cccs3)c(Nc3ccc4c(c3)OCCO4)n2c1` was tested. Which Potency did it give?
Answer: inconclusive: 28.2 µM [inhibitor, partial curve, poor fit]

Question: How did the activity change, negative = inhibition turn out when `CCOC(=O)N1CCN(Cc2nc3cc(NC(=O)c4ccccc4Cl)ccc3n2C(C)C)CC1` was run?
Answer: inconclusive: -33% [inhibitor]

Question: With `O=C(OC1CCOC1=O)c1ccccc1Nc1ccccc1` (stereo not given) as the compound, how does the Potency read?
Answer: inconclusive: 39.8 µM [inhibitor, single point]

Question: How did the Potency turn out when `C=CCCC(CN1CCCOCC1)Oc1cc(C#N)ccn1` (stereo not given) was run?
Answer: active: 28.2 µM

Question: How did the Potency turn out when `COc1ccccc1NC(=O)CSc1cn(CC(=O)N2CCCC2)c2ccccc12` was run?
Answer: inconclusive: 25.1 µM [inhibitor, partial curve, poor fit]

Question: For `C[C@H]1CCCN1C(=O)c1nnc(COc2ccc3cccnc3c2)n1-c1cccnc1`, which Potency is on record?
Answer: inconclusive: 35.5 µM [inhibitor, partial curve, poor fit]

Question: With `OC[C@@H]1O[C@H](CNCc2ccc(F)cc2)[C@H](N2CCOCC2)[C@@H]1O` as the compound, how does the Potency read?
Answer: inconclusive: 22.4 µM [inhibitor, partial curve]

Question: Which Potency does the source give for `COc1ccc(C(=O)N2C[C@@H]3C[C@H](C2)c2ccc(NC(=O)Nc4cccc(C#N)c4)c(=O)n2C3)cc1` here?
Answer: inconclusive: 25.1 µM [inhibitor, partial curve]

Question: For `N#C/C(=C/c1ccc(OC(F)F)cc1)C(=O)Nc1cc(C(F)(F)F)ccc1Cl`, which Potency is on record?
Answer: inconclusive: 39.8 µM [inhibitor, single point]

Question: With `CCc1ccccc1NC(=O)CN(C)CC(=O)NC(=O)NCC(F)(F)F` as the compound, how does the Potency read?
Answer: inactive

Question: For `CC(C)NC(=O)[C@@H]1C[C@@H](NC(=O)c2ccon2)CN1Cc1cccnc1N`, which Potency is on record?
Answer: inactive

Question: How did the Potency turn out when `COc1cccc(-c2nccc3c(=O)cc(N(C)C)oc23)c1` was run?
Answer: active: 31.6 µM

Question: How did the Potency turn out when `Cc1ccccc1-c1nnc(SCc2coc(-c3cccs3)n2)n1C` was run?
Answer: inactive

Question: How did the Potency turn out when `COc1ccc(C)cc1NC(=O)c1nnn(Cc2cccc(Br)c2)c1N` was run?
Answer: inconclusive: 39.8 µM [inhibitor, single point]

Question: For `Brc1ccc(-c2noc(CCc3nc4ccccc4[nH]3)n2)cc1`, which Potency is on record?
Answer: inactive

Question: With `O=C(Nc1ccc(Cl)cc1)NC1CCCN(c2nc3ncccc3o2)C1` (stereo not given) as the compound, how does the Potency read?
Answer: inconclusive: 22.4 µM [inhibitor, partial curve]

Question: `CC(=O)c1cccc(Nc2nc(-c3ccc(C)cc3)nc3ccccc23)c1` was tested. Which Potency did it give?
Answer: inconclusive: 35.5 µM [inhibitor, partial curve, poor fit]

Question: For `COCCOc1ccc(C(=O)/C=C/c2ccc(C(=O)OC)o2)cc1`, which Potency is on record?
Answer: inconclusive: 35.5 µM [inhibitor, partial curve, poor fit]

Question: `COc1ccc(CNC(=O)c2cnc(N3CCCC3)nc2C)c(OC)c1` was tested. Which Potency did it give?
Answer: inconclusive: 25.1 µM [inhibitor, single point]

Question: With `O=C(Cn1nc(C(=O)O)c2ccccc2c1=O)NC(=O)NCc1ccccc1` as the compound, how does the Potency read?
Answer: inconclusive: 1.78 µM [inhibitor, full curve, poor fit]

Question: For `CCNC(=O)C1CCCN(Cc2ccc(C(F)(F)F)cc2)C1` (stereo not given), which Potency is on record?
Answer: inactive

Question: How did the Potency turn out when `COCCN1CCNc2nc(CNCc3cccc(Cl)c3)n(Cc3ccccc3)c2C1=O` was run?
Answer: inactive

Question: How did the Potency turn out when `CC(NC(=O)c1cc(=O)c2ccccc2o1)c1ccccc1` (stereo not given) was run?
Answer: inactive

Question: `Cc1ccc(C)c(NC(=O)Cn2ccn3nc(-c4ccccc4)c(CO)c3c2=O)c1` was tested. Which Potency did it give?
Answer: inconclusive: 20 µM [inhibitor, partial curve]

Question: For `COc1cccc(/C=C2/C(=O)NN(c3ccc(F)cc3)C2=O)c1`, which Potency is on record?
Answer: inconclusive: 15.8 µM [inhibitor, partial curve, poor fit]

Question: With `CCN1CCN(c2nc(-c3ccccc3Cl)nc3ccccc23)CC1` as the compound, how does the Potency read?
Answer: inconclusive: 28.2 µM [inhibitor, single point]

Question: With `COc1ccc(-n2nc3ccc(NC(=O)c4cccc(OCCC(C)C)c4)cc3n2)cc1` as the compound, how does the Potency read?
Answer: inconclusive: 2.51 µM [inhibitor, full curve, poor fit]

Question: Which Potency does the source give for `Cc1ccc2nc(-c3cccc(OC(C)C)c3)cc(C(=O)O)c2c1` here?
Answer: inactive

Question: Which Potency does the source give for `CC(=O)Nc1ccc(-c2csc(Nc3ccc(O)cc3)n2)cc1` here?
Answer: inconclusive: 35.5 µM [inhibitor, single point]

Question: With `Cc1nn(C)c2c1c(-c1ccccc1)cc(=O)n2Cc1ccc(F)cc1` as the compound, how does the Potency read?
Answer: inconclusive: 31.6 µM [inhibitor, partial curve, poor fit]

Question: With `FC(F)(F)c1ccc(CN2CC(N3CCc4ccccc43)C2)cc1` as the compound, how does the Potency read?
Answer: inconclusive: 50.1 µM [inhibitor, partial curve, poor fit]

Question: With `Nc1nccnc1C(=O)NCCNC(=O)c1ccco1` as the compound, how does the Potency read?
Answer: inconclusive: 22.4 µM [inhibitor, partial curve, poor fit]

Question: How did the Potency turn out when `Cc1ccc2nc(SCC(=O)Nc3ccccc3C(=O)Nc3ccccc3)[nH]c2c1` was run?
Answer: inactive

Question: With `O=C(O)c1ccc(/C=C/C(=O)c2nc3ccccc3s2)cc1` as the compound, how does the Potency read?
Answer: inconclusive: 11.2 µM [inhibitor, partial curve, poor fit]

Question: With `CCn1nnc2cc(C(=O)Nc3nc(-c4ccc5c(c4)CCC(=O)N5)cs3)ccc21` as the compound, how does the Potency read?
Answer: inactive

Question: For `CC1CCN(c2oc(-c3cccs3)nc2S(=O)(=O)c2ccccc2)CC1`, which Potency is on record?
Answer: inconclusive: 25.1 µM [inhibitor, partial curve, poor fit]

Question: `Cc1cccc(C)c1NS(=O)(=O)c1ccc2c(c1)[C@H]1C=CC[C@H]1[C@@H](c1ccc(Cl)cc1)N2` was tested. Which Potency did it give?
Answer: inconclusive: 28.2 µM [inhibitor, partial curve, poor fit]

Question: For `COCC1CN(C(C)=O)CC12CCN(Cc1cc(Cl)ccc1F)CC2` (stereo not given), which Potency is on record?
Answer: inactive

Question: With `CN(C)CCNC(=O)c1cc2c(n1C)CCN(Cc1ccc(F)cc1)C2` as the compound, how does the Potency read?
Answer: inconclusive: 25.1 µM [inhibitor, partial curve, poor fit]

Question: Which Potency does the source give for `Cc1oc(-c2cccs2)nc1C(=O)N1CCOC(C)C1` (stereo not given) here?
Answer: inconclusive: 22.4 µM [inhibitor, partial curve, poor fit]

Question: `Cc1ccc2c(c1)cc1c(=O)n(Cc3ccc(Cl)cc3)nc(C)n12` was tested. Which Potency did it give?
Answer: inconclusive: 39.8 µM [inhibitor, single point]

Question: With `O=C(CSc1nnnn1Cc1ccccc1)N1N=C(c2cc3ccccc3o2)CC1c1ccco1` (stereo not given) as the compound, how does the Potency read?
Answer: inconclusive: 25.1 µM [inhibitor, partial curve, poor fit]

Question: How did the Potency turn out when `CNC(=O)[C@@H]1C[C@@H](Nc2ncnc(Oc3cccnc3C)c2C)CN1C` was run?
Answer: inconclusive: 22.4 µM [inhibitor, partial curve]

Question: `c1cc(-c2noc([C@@H]3CCCN3Cc3ncc[nH]3)n2)cc(N2CCOCC2)n1` was tested. Which Potency did it give?
Answer: active: 31.6 µM

Question: Which Potency does the source give for `COc1ccccc1CNC1(Cc2cc(COc3ccccc3)on2)COC1` here?
Answer: inconclusive: 39.8 µM [inhibitor, single point]

Question: Which Potency does the source give for `CC1CCCCN1S(=O)(=O)c1cc2c(=O)nc3ccccn3c2cc1Cl` (stereo not given) here?
Answer: inconclusive: 15.8 µM [inhibitor, partial curve, poor fit]

Question: Which Potency does the source give for `C[C@@H](C(=O)N1CCN(c2ccc(F)cc2)CC1)n1cnc2ccccc2c1=O` here?
Answer: inactive

Question: `CC(=O)N1c2ccc(S(=O)(=O)NCCC(=O)N(C)Cc3ccco3)cc2CC1C` (stereo not given) was tested. Which Potency did it give?
Answer: inactive

Question: Which Potency does the source give for `CCOc1ccc(C2C(C(=O)Nc3ccccc3OC)=C(C)Nc3c(C(=O)Nc4cccc(C)c4)cnn32)cc1` (stereo not given) here?
Answer: inconclusive: 35.5 µM [inhibitor, partial curve, poor fit]

Question: Which Potency does the source give for `O=C1NC(C(=O)NC2CCCC2)Cn2cccc21` (stereo not given) here?
Answer: inactive

Question: For `O=C1CC(c2nnc(Cc3cccc(Cl)c3)o2)CN1c1ccccc1` (stereo not given), which Potency is on record?
Answer: inconclusive: 25.1 µM [inhibitor, partial curve, poor fit]

Question: How did the Potency turn out when `CCOc1ccc(-c2cc(C(=O)NCCc3ccccn3)[nH]n2)cc1` was run?
Answer: inactive

Question: Which Potency does the source give for `Cc1cccnc1C(=O)N[C@@H]1CN(C2CCOCC2)C[C@H]1CN(C)C` here?
Answer: inconclusive: 35.5 µM [inhibitor, partial curve, poor fit]

Question: Which Potency does the source give for `CN1CCN(C(=O)CN2CCN(C(C(=O)O)c3cn(C)c4cc(C(=O)O)ccc34)CC2)CC1` (stereo not given) here?
Answer: inconclusive: 28.2 µM [inhibitor, single point]
